# Laboratory results published in ChEMBL document CHEMBL4888484, “Replenishing the malaria drug discovery pipeline: Screening and hit evaluation of the MMV Hit Generation Library 1 (HGL1) against asexual blood stage Plasmodium falciparum ,using a nano luciferase reporter read-out” (2022).
# About 540 (0.36%) of roughly 150,000 compounds showed an effect of 50% or more. The list shows a part of the results.
# Tested on: Plasmodium falciparum
# Experiment: Primary screen in NF54 nanoGlo assay, in single point, at 2uM, 72h; a lower Z score goes with more inhibition
# Type: functional, Erythrocyte
# Settings: timepoint 72 hour
Structure (SMILES),% Inhibition [%],Z score
O=C(Nc1ccc(F)cc1Cl)N1C[C@@H]2[C@@H]3CC[C@@H](C3)[C@@H]2C1,-23,2.65
Cc1ccc(C)c(NC(=O)c2cnn3c4c(cnc23)CCCCC4)c1,-7,1.13
Cc1nccc(C(=O)N2CCN(C)C[C@@H]2C)n1,-11,1.72
CC(C)N1CCC(c2nc([C@]3(c4ccc(F)cc4)CCOC3)no2)CC1,-18,2.47
Nc1nccc(N2CC[C@H]3[C@H](CCC(=O)N3CCc3ccccc3)C2)n1,-16,1.45
Cc1ccc(CNC(=O)c2c[nH]c(-c3ccc(F)cc3)n2)cc1,-14,1.96
Cc1ncsc1CN(C)Cc1nnc(-c2cccs2)o1,-9,1.44
COc1ccccc1[C@@H](C)CC(=O)OCc1nc2cc(C(F)(F)F)ccc2o1,-2,0.2
CC(C)NC(=O)N(Cc1c(-c2ccccc2F)noc1N1CCOCC1)C1CC1,2,-0.18
CO[C@H]1COCC[C@@H]1NC(=O)c1cc(C)oc1C,-14,1.67
Cc1ccc2oc(-c3noc(C(=O)NCC4CCN(Cc5ccccc5F)CC4)n3)c(C)c2c1,-16,1.87
OCCCN1CCN(c2ncc3c(n2)CCN3c2ccccc2)CC1,3,-0.39
COc1ccc(C(=O)N2CCCC2)c(OC2CCN(CC[C@H](C)c3ccccc3)CC2)c1,-2,0.3
N#C[C@]1(NC(=O)c2cc(F)c(F)cc2F)CCc2ccccc2C1,-5,0.81
Cc1cccc(NC(=O)c2sccc2S(=O)(=O)N2CCc3ccccc3C2)c1C,-9,1.75
COc1ccc(C(=O)N2CCN(Cc3c(-c4cccc(OC)c4)nc4ccc(-c5cccc(C(F)(F)F)c5)cn34)CC2)cc1,1,-0.16
O=C(C1CCCC1)N1CCN(c2nc(-c3ccccc3Cl)nc3cc(Cl)ccc23)CC1,0,-0.01
O=C(Cc1ccccc1)[C@H]1CCCN(C(=O)CCc2ccco2)C1,-21,4.07
CN(Cc1nc2ccccc2n1C)C(=O)c1cc(COc2ccccc2)[nH]n1,1,-0.23
c1cncc(CN(Cc2ccc3c(c2)OCO3)Cc2cccc3nsnc23)c1,-2,0.32
Cc1noc(C)c1NC(=O)[C@@H]1Cc2ccccc2O1,-4,0.61
Cc1ccc(C2=NC3(CCCCCC3)NC2=O)cc1,-10,1.48

Structure (SMILES),% Inhibition [%],Z score
CCc1nnc(CNC(=O)[C@H](CC)n2c(CC)nc3ccccc32)s1,-12,2.19
CCCC[C@H]1C(=O)NCCN1C(=O)c1oc2c(Cl)cccc2c1C,-5,0.87
Cc1cccc(NC(=O)[C@@H]2CC[C@H](C(=O)O)C2)c1,-14,1.8
COc1nccc(NC(=O)NC2(c3nccs3)CCCC2)n1,-4,0.64
CCn1nc([C@H]2CCOC2)nc1CCc1ccccc1F,-1,0.12
Cc1nnsc1C(=O)NCc1nc(N(C)C)nc(N(C)C)n1,-22,2.82
C[C@H](NCCCc1cccnc1)C(=O)NC1CCCC1,-9,1.56
CCOc1ccc(-c2c(C)n[nH]c2NC(=O)CCc2ccccc2)cc1OCC,-5,0.86
CC1(CNc2ccc(Cc3nnc4n3CCC4)cc2)COC1,-3,0.47
Cc1cc(CN(C)C(=O)c2csc(C(C)(C)C)n2)no1,-8,1.15
COc1cccc([C@H]2CN(C(=O)c3ccc4cc[nH]c4c3)C[C@@H]2N)c1,13,-1.7
Nc1noc2cccc(Br)c12,2,-0.28
COc1nccn2c(CNC(=O)Cc3ccccc3)nnc12,-8,1.41
O=S(=O)(Nc1ccc2c(c1)CCCN2S(=O)(=O)c1ccccc1)c1cccs1,-3,0.62
COc1ccc(F)cc1CC(=O)N1CCC[C@H](C2CC2)C1,-2,0.26
COCC(=O)Nc1cc(C(=O)N[C@@H](C)c2csc(C)n2)c2c(c1)nc(C1CCC1)n2C,10,-1.27
CCn1ccc(C(=O)N2CC[C@H](Cc3nc4cccnc4n3CC(C)C)C2)n1,-8,1.27
COCCNC1=Nc2ccccc2CN[C@]12CCN(C(=O)COc1ccc(F)c(F)c1)C2,-6,0.95
Cc1cnn(CCCN2C[C@@](C)(c3ccccc3)CCC2=O)c1,1,-0.17
O=C(O)c1cccnc1NCC1(N2CCN(c3ccccc3)CC2)CCOCC1,-6,1.06
CC1OCCC1NC(=O)NCCc1nc2cc(Cl)ccc2n1C (stereo not given),-1,0.08
CS(=O)(=O)N[C@H]1CCCN(C(=O)CCc2ccc(-c3ccccc3)o2)C1,-5,0.44

Structure (SMILES),% Inhibition [%],Z score
O=C(c1ccc(Br)o1)N1CCOC2CCCCC21 (stereo not given),-13,1.93
Cc1ccc(Nc2nc(N)nc(Cn3cc(C(F)(F)F)cc(Cl)c3=O)n2)cc1,-16,2.94
Cc1ccc(S(=O)(=O)N2C[C@H](F)C[C@@H]2C(=O)N2CCOCC2)cc1Cl,13,-1.71
C[C@@H](COc1ccccc1)NCCc1nnc(N)s1,2,-0.31
Cc1cc(-n2cccn2)ccc1CN(Cc1cccnc1)C[C@@H]1CCC(=O)N1,-4,0.77
CCN1C(=O)COc2ccc(-c3csc(NC(=O)[C@@H]4CCCO4)n3)cc21,37,-0.96
O=c1c2ccccc2nnn1C[C@H]1CC[C@H](C(=O)Nc2nccs2)CC1,-7,0.88
CC(NC1CC2CCCc3cccc1c32)c1cnccn1 (stereo not given),3,-0.28
CC(NC1(C)CCOC1)c1cc2ccccc2o1 (stereo not given),-7,1.11
O=C(c1cccc(CO)n1)N1CCC2(CC1)c1ccccc1C[C@@H]2O,16,-2.05
CCCCOCC(=O)N1CCC[C@H](CO)C1,-6,0.76
CCS(=O)(=O)NCCNC(=O)c1ccc(Cl)cc1,-10,1.52
CC(C)Oc1ccc2nnc(CCC(=O)N[C@H]3CCS(=O)(=O)C3)n2n1,2,-0.31
COC1CC(CCNC(=O)N2CCC(c3cncn3C)CC2)C1 (stereo not given),-6,1.14
CO[C@H]1C[C@H]2CN(C(=O)Nc3ccccc3Cl)[C@@H](C)C(=O)N2C1,1,-0.16
CCOc1ccc(C(=O)N(C)C)cc1N,-9,1.32
Cc1nc(CN(C)[C@H]2CCC(=O)N(Cc3cccc(Cl)c3)CC2)cs1,2,-0.28
Clc1ccc2nc(N3CC(c4ccccn4)C3)sc2c1,5,-0.74
CC(C)Oc1ccc(-c2noc(Cn3c(=O)n(Cc4ccccc4)c(=O)c4sccc43)n2)cc1,-4,0.45
Cc1nn(C)c(C)c1CN(C)S(=O)(=O)N1CCCC1,-3,0.56
CC(=O)[C@H]1CCN(c2nccc(C(F)(F)F)n2)C1,-7,1.4
Cc1cc(C(=O)Nc2ccc(N3C(=O)CC[C@@H]3C)cc2)cc(C)n1,-1,0.14

Structure (SMILES),% Inhibition [%],Z score
Cc1ccc(-c2cn3c4ccccc4nc3n2CCCNC(C)C)cc1,-5,0.44
CCc1ccccc1S(=O)(=O)N1C2CC[C@@H]1CN(C)CC2,-8,1.61
Cn1c([C@@H]2CCCN2c2cc(N3CCCC3)ncn2)nc2c1CCCC2,13,-1.69
COc1ccc(F)c(CN2CCC[C@@]3(CCN(c4ncccn4)C3)C2=O)c1,-14,1.86
O=C(CC1CCN(C(=O)c2ccc3nc(-c4ccccc4)oc3c2)CC1)NCc1cccc(Cl)c1,-5,0.63
O=C(CN1CCCC1)NCCCc1ccccc1,-6,1.09
Cc1cc(C)c2c(C(=O)NCCc3nnc(N)s3)cc(C)nc2c1,5,-0.65
CCCN1C[C@@H](C(=O)NC2CCCC2)CC1=O,-21,1.88
CCNc1ccnc(NC2CC(C)(C)N(C)C(C)(C)C2)n1,8,-1.02
Nc1nccnc1C(=O)Nc1cccc(N2C(=O)CNC2=O)c1,-4,0.47
Cc1ccccc1S(=O)(=O)Nc1cnc(N2CCC(C)CC2)c(C(=O)O)c1,9,-0.85
C=C(C)CN(CC)C(=O)C(=O)Nc1ccc2c(c1)N(C)CC2,-14,1.93
CC(C)c1nnsc1C(=O)NC(c1cccs1)[C@H]1C[C@@H](O)C1 (stereo not given in full),-5,0.63
Cc1cc(C(=O)NC2CCN(C(=O)c3cnc4ccc(F)cc4c3)CC2)c(C)o1,-14,1.47
Cc1ccc2oc(-c3cc4c(cc3Br)OCO4)nc2c1,-23,2
CCC1CN(C(=O)c2nc(C)ncc2Cl)CC1N(C)C (stereo not given),-11,1.5
CCn1cnc2c(N3CC4CN(c5ccccc5)CC4C3)ncnc21 (stereo not given),35,-3.97
NS(=O)(=O)N1CCCN(c2ncnc3cc(Cl)ccc23)CC1,-3,0.33
COc1ccccc1CNC(=O)CC1CCN(C)CC1,-7,1
